# Measurements reported in the supplement of paper PMC3334620.
# The full ranking holds about 33,000 sequences; the median of “E-score (-0.5 to 0.5)” is about -0.043, and the highest 2% start at about 0.37. Some of the results follow.
# Molecular target: T1, Upc2 (UniProt Q12151)
# T1 sequence: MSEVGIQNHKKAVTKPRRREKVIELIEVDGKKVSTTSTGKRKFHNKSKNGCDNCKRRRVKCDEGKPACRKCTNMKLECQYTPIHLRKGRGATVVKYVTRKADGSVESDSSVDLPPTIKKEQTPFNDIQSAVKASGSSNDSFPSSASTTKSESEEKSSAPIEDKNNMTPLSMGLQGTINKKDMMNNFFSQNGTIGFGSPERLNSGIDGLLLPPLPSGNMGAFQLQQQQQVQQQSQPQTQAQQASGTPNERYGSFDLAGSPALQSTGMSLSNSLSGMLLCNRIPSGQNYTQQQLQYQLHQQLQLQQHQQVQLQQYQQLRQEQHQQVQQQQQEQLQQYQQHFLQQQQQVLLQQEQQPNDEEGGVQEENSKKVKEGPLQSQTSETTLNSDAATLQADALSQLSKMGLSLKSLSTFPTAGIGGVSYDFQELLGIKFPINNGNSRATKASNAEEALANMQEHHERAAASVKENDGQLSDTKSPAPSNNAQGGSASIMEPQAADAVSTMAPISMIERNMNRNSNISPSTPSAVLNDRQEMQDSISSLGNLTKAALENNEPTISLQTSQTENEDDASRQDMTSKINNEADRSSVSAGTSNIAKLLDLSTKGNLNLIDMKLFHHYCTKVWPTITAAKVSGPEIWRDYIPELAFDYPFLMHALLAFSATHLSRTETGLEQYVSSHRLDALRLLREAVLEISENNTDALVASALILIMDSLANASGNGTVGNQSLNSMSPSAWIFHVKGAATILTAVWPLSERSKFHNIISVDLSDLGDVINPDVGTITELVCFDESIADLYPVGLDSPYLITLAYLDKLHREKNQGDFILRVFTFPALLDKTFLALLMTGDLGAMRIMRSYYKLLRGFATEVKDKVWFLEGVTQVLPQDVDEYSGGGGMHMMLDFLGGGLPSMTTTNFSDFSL
# Experiment: PBM E-score (8-mer binding enrichment) (E-score (-0.5 to 0.5)); higher = stronger / more preferred TF binding; most listed sequences are background and not binding sites
# Conditions: protein concentration: 200 nM; construct: GST-full length
# Method: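 Universal 'all 10-mer' protein binding microarrays (Agilent AMADID 015681) probed with GST-tagged S. cerevisiae TFs (full-length or DBD) made by in vitro transcription/translation (PURExpress), about 100-200 nM. Bound TF was detected with fluorescent anti-GST. Each ungapped 8-mer (which stands for itself and its reverse complement) is scored by the PBM enrichment score (E-score), a modified Wilcoxon-Mann-Whitney statistic from -0.5 to +0.5, computed with the Universal PBM Analysis Suite. Scale: above 0.35 generally sequence-specific binding.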
row,Sequence,PBM E-score
1,CAGATAAG,-0.022
2,ACGCGAAA,0.24
3,CTCGATCA,0.0617
4,AGTTGATA,-0.0653
5,AGTCACTC,-0.141
6,GACTCACA,-0.167
7,CTGAACAG,-0.114
8,AGAGTCGA,-0.0797
9,CTGACGAA,-0.095
10,ATGGGATC,-0.151
11,CCCCACCA,-0.00292
12,GACGCTAA,0.00614
13,GCACTGCA,-0.0949
14,ATCTAGTC,-0.226
15,AAAACTGT,0.0766
16,AAACTTAC,0.101
17,AGCTAAAC,0.215
18,CGTCCTCC,-0.155
19,CGTTATGA,-0.104
20,CGGTCACG,0.0102
21,GCCGGCTA,-0.253
22,AGCAAACC,0.0163

row,Sequence,PBM E-score
1,ACGGTCCC,0.0813
2,AGGGCTAC,-0.113
3,AGCAGCTC,-0.169
4,ATGGGTCC,-0.164
5,CAGATCGC,0.0291
6,AGCGGGAG,-0.165
7,ATATCCCC,-0.284
8,GGGTCACC,-0.356
9,CGCTCATC,0.218
10,GCGGAAGA,0.014
11,CTTGGTCA,-0.176
12,GCACGCTA,-0.0431
13,GAACAAGC,0.0426
14,ATCATTAG,0.0098
15,GAAAAGCC,-0.169
16,ATCATACA,0.0941
17,ACCTGGTA,-0.0639
18,ATTAGGTG,-0.0896
19,ACAGCTAA,-0.157
20,AGGTCAGG,-0.323
21,ATCTGGAC,-0.288
22,GGATTTCA,-0.191

row,Sequence,PBM E-score
1,ATTTTAGC,0.0174
2,TATGGGCA,-0.159
3,CGCGTGTC,0.0605
4,GCGGCCCC,-0.254
5,TGTTTAAA,0.0234
6,AGGTCTCG,0.0733
7,GTTTCGAA,0.0998
8,AGCCCCCA,-0.311
9,TCCTTGCA,-0.105
10,GTACGAAC,0.467
11,GCAGAACA,-0.193
12,GACCAGAA,-0.053
13,ACCAACCG,-0.0269
14,GCGAGGCC,0.2
15,GCCGGGCC,-0.11
16,ACGAATAA,0.312
17,GGGCCTTA,-0.215
18,CTACTGGA,-0.249
19,TCCGTGAA,0.0778
20,ACGATCGC,0.352
21,AGCGAACA,0.19
22,AGGGACAA,-0.0862

row,Sequence,PBM E-score
1,GTAAAGGA,0.187
2,CACTTGAG,-0.0904
3,ACCCCCTA,-0.152
4,AGATATCC,-0.0197
5,AAATGATT,0.0371
6,ATGTCAGA,-0.25
7,GCGAATCA,0.0895
8,GCTTAGAC,-0.0952
9,ATGAGTGG,-0.126
10,CCAAGGCC,-0.13
11,ACGCGCAT,0.103
12,CAATAAAG,-0.0138
13,CCCCTGGA,-0.204
14,TAAGAGCA,0.147
15,ATAACGTA,0.258
16,ATGCTGTG,0.0988
17,CACGAACA,0.0853
18,ATGTTTGA,-0.0614
19,TCCTGGCA,-0.0779
20,CGCCGGGA,-0.107
21,GCGCTCCC,-0.151
22,CATGTATA,0.137

row,Sequence,PBM E-score
1,ATACTCGG,0.0799
2,AAGAATAC,-0.00552
3,AGTGTTTC,0.109
4,TGCTCACA,-0.0272
5,AGTTGAAC,0.142
6,CCGAGGAG,0.142
7,CGGAGTAG,-0.123
8,AGATAGCT,-0.104
9,GACAATTA,0.1
10,ACGAGGCG,0.4
11,AGGGAGCC,-0.284
12,ACAATCAC,0.0153
13,CTGGCTAA,-0.194
14,CAATGGTA,-0.0318
15,ACTGTGTC,-0.114
16,ACGAACAA,0.363
17,AATTAGGG,-0.251
18,AGTGTAAC,-0.0845
19,GAAGAATA,-0.0363
20,CACGCACA,0.127
21,GCCACACA,-0.312
